Experimental data as given in article PMC12171682, “Saarvienin A—A Novel Glycopeptide with Potent Activity against Drug‐Resistant Bacteria” (Angewandte Chemie (International Ed. in English), 2025).
≈ marks a conversion by molar mass, not a printed value.

How the values were obtained:
[1] = system: M. smegmatis mc^2155; settings: 7H9 complete medium with 10% OADC, two-fold serial dilutions, 1% DMSO, visual read-out; mean of three independent biological replicates, each in technical triplicate
[2] = system: P. aeruginosa PA14 ΔmexAB; settings: broth microdilution, cation-adjusted Mueller-Hinton Broth II, ~4 × 10⁵ CFU/mL, 37 °C, 24 h; mean of three independent biological replicates, each in technical triplicate
From the text: All bacterial isolates were handled following standard procedures. Staphylococcus aureus strains Mu50 and N315 were obtained from the Institute of Medical Microbiology, Zurich, Switzerland. […] E. faecalis DSM 12956 and Enterococcus faecium DSM 17050 were purchased from the German Collection of Microorganisms and Cell Cultures (DSMZ). The S. aureus HG001 strain and its daptomycin-resistant mutant, HG001 DAPR, were provided by the Institute for Pharmaceutical Microbiology (IPM), University of Bonn. E. coli WO153 was generously provided by the Antimicrobial Discovery Center, Department of Biology, Northeastern University. Additional strains were part of our internal collection and were cultured under conditions recommended by their respective depositors. A collection of twenty six vancomycin-resistant E. faecium clinical isolates with reduced sensitivity to daptomycin, were generously provided by PD Dr. Stefano Mancini from the Institute of Medical Microbiology, University of Zurich.

| SMILES | MIC, M. smegmatis mc^2155 [1] [µg/mL] | MIC, P. aeruginosa PA14 ΔmexAB [2] [µg/mL] |
| --- | --- | --- |
| CN[C@H](CC(C)C)C(=O)N[C@H]1C(=O)N[C@@H](CC(N)=O)C(=O)N[C@H]2C(=O)N[C@H]3C(=O)N[C@H](C(=O)N[C@H](C(=O)O)c4cc(O)cc(O)c4-c4cc3ccc4O)[C@H](O)c3ccc(c(Cl)c3)Oc3cc2cc(c3O[C@@H]2O[C@H](CO)[C@@H](O)[C@H](O)[C@H]2O[C@H]2C[C@](C)(N)[C@H](O)[C@H](C)O2)Oc2ccc(cc2Cl)[C@H]1O [Vancomycin, vancomycin] | 2 (≈ 1.38 µM) | – |
| CN[C@@]1(C)C[C@H](O[C@@H]2[C@H](O)C[C@H](O[C@H]3[C@H](C)O[C@@H](O[C@H]4[C@H](O[C@H]5[C@H](C)O[C@@H](Oc6ccc(C[C@@H](O)C(=O)N[C@H]7CNC(=O)NC[C@@H](C(=O)N[C@H](Cc8ccccc8)C(=O)O)NC(=O)[C@H]([C@H](C)c8c[nH]c9ccc(Cl)cc89)NC7=O)cc6)C[C@]5(C)N)O[C@@H](C)[C@H](O)[C@H]4O)C[C@]3(C)NC)O[C@H]2C)O[C@@H](C)[C@@H]1OC [Saarvienin A, saarvienin A] | 1 (≈ 0.662 µM) | >64 |
